Experimental data from patent US20240392035A1 (DENALI THERAPEUTICS, published 2024).
Values belong to the binder of their own block, whether it stands above or below them.

Experiments:
human TfR on cells = human TfR on cells (human, UniProt P02786); test: cell-based or functional assay
[1] = molecular target: HER2 on HER2-overexpressing tumor cell lines (UniProt P04626); test: cell-based or functional assay
[2] = molecular target: T1, recombinant human TfR apical domain (human, UniProt P02786 198-378); test: SPR (Biacore), protein captured on anti-human Fab chip, human TfR apical domain injected, 1:1 Langmuir fit
T1 construct: also called recombinant TfR apical domain; transferrin receptor protein 1
Experimental: Affinities of the bispecific proteins were measured by SPR using a Biacore T200 or a Biacore 8K. Biacore™ Series S CM5 sensor chips were immobilized with monoclonal mouse anti-human IgG (Fc) antibody for HER2 affinity measurements or mouse anti-human Fab for TfR affinity measurements (human antibody or Fab capture kit from GE Healthcare). Serial 3-fold dilutions of analyte (recombinant HER2 extracellular domain or recombinant TfR apical domain) were injected at a flow rate of […]. Each sample was analyzed using a 3-minute association and a 10-minute dissociation for HER2 extracellular domain binding and a 40-second association and a 3-minute dissociation for human TfR apical domain binding. After each injection, the chip was regenerated using 3 M MgCl₂ or 50 mM glycine at pH 2.0. Binding response was corrected by subtracting the RU from a flow cell capturing an irrelevant IgG at similar density. A 1:1 Languir model of simultaneous fitting of kon and koff was used for kinetics analysis. […] The two constructs are described below.

T1 sequence (P02786 198-378 limits assumed): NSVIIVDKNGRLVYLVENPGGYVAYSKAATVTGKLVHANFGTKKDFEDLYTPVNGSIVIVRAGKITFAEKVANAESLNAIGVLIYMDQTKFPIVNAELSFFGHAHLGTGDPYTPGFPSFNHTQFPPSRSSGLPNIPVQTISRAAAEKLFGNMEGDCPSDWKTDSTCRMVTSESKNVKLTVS

maximum growth inhibition, OE19 cells, WST-1 assay (human TfR on cells): ~80%
maximum growth inhibition, OE19 cells, WST-1 assay [1]: ~80%
B1: anti-HER2_DIV/DII_scFv_2 (bispecific antibody, human IgG1, kappa)
heavy 1: EVQLVESGGGLVQPGGSLRLSCAASGFTFTDYTMDWVRQAPGKGLEWVADVNPNSGGSIYNQRFKGRFTLSVDRSKNTLYLQMNSLRAEDTAVYYCARNLGPSFYFDYWGQGTLVTVSSASTKGPSVFPLAPSSKSTSGGTAALGCLVKDYFPEPVTVSWNSGALTSGVHTFPAVLQSSGLYSLSSVVTVPSSSLGTQTYICNVNHKPSNTKVDKKV[human IgG1 Fc with changes cut from this listing]
heavy 2: [about 100 residues cut from this listing]GGGGSGGGGSGGGGSGGGGS[about 120 residues cut from this listing][about 250 residues cut from this listing]
light: DIQMTQSPSSLSASVGDRVTITCKASQDVSIGVAWYQQKPGKAPKLLIYSASYRYTGVPSRFSGSGSGTDFTLTISSLQPEDFATYYCQQYYIYPYTFGQGTKVEIKRTVAAPSVFIFPPSDEQLKSGTASVVCLLNNFYPREAKVQWKVDNALQSGNSQESVTEQDSKDSTYSLSSTLTLSKADYEKHKVYACEVTHQGLSSPVTKSFNRGEC

Kd [2]: 350 nM
B2: Bispecific Protein #7 (bispecific antibody, human IgG1, kappa, L234A L235A)
heavy 1: EVQLVESGGGLVQPGGSLRLSCAASGFTFTDYTMDWVRQAPGKGLEWVADVNPNSGGSIYNQRFKGRFTLSVDRSKNTLYLQMNSLRAEDTAVYYCARNLGPSFYFDYWGQGTLVTVSSASTKGPSVFPLAPSSKSTSGGTAALGCLVKDYFPEPVTVSWNSGALTSGVHTFPAVLQSSGLYSLSSVVTVPSSSLGTQTYICNVNHKPSNTKVDKKVEPKSCDKTHTCPPCPAPEAAGGPSVFLFPPKPKDTLMISRTPEVTCVVVDVSHEDPEVKFNWYVDGVEVHNAKTKPREEQYNSTYRVVSVLTVLHQDWLNGKEYKCKVSNKALPAPIEKTISKAKGQPREPQVYTLPPSRDELTKNQVSLWCLVKGFYPSDIAVEWESYGTEWSNYKTTPPVLDSDGSFFLYSKLTVSKEEWQQGFVFSCSVMHEALHNHYTQKSLSLSPGKGGGGGSGGGGS[about 120 residues cut from this listing]
heavy 2: EVQLVESGGGLVQPGGSLRLSCAASGFTFTDYTMDWVRQAPGKGLEWVADVNPNSGGSIYNQRFKGRFTLSVDRSKNTLYLQMNSLRAEDTAVYYCARNLGPSFYFDYWGQGTLVTVSSASTKGPSVFPLAPSSKSTSGGTAALGCLVKDYFPEPVTVSWNSGALTSGVHTFPAVLQSSGLYSLSSVVTVPSSSLGTQTYICNVNHKPSNTKVDKKVEPKSCDKTHTCPPCPAPEAAGGPSVFLFPPKPKDTLMISRTPEVTCVVVDVSHEDPEVKFNWYVDGVEVHNAKTKPREEQYNSTYRVVSVLTVLHQDWLNGKEYKCKVSNKALPAPIEKTISKAKGQPREPQVYTLPPSRDELTKNQVSLSCAVKGFYPSDIAVEWESNGQPENNYKTTPPVLDSDGSFFLVSKLTVDKSRWQQGNVFSCSVMHEALHNHYTQKSLSLSPGGGGGGSGGGGS[about 100 residues cut from this listing]
light: B1 light

Kd [2]: 450 nM
B3: Bispecific Protein #3 (bispecific antibody, human IgG1, kappa)
heavy 1: [about 100 residues cut from this listing]GGSGGGSGGGSGGGSGGGSG[about 120 residues cut from this listing][about 250 residues cut from this listing]
heavy 2: EVQLVESGGGLVQPGGSLRLSCAASGFTFTDYTMDWVRQAPGKGLEWVADVNPNSGGSIYNQRFKGRFTLSVDRSKNTLYLQMNSLRAEDTAVYYCARNLGPSFYFDYWGQGTLVTVSSASTKGPSVFPLAPSSKSTSGGTAALGCLVKDYFPEPVTVSWNSGALTSGVHTFPAVLQSSGLYSLSSVVTVPSSSLGTQTYICNVNHKPSNTKVDKKV[human IgG1 Fc with changes cut from this listing]
light: B1 light
